This sample is rich in variants without activity.
B1: TPR 5TU (parent)
chain: GGAUCUUCUCGAUCUAACAAAAAAGACAAAUCUGCCACAAAGCUUGAGAGCAUCUUCGGAUGCAGAGGCGGCAGCCUUCGGUGGCGCGAUAGCGCCAACGUUCUCAACUAUGACACGCAAAACGCGUGCUCCGUUGAAUGGAGUUUAUCAUG

Variants of: B1
Test: polymerase ribozyme fitness, log enrichment relative to wild type (log ratio); higher = more active; in vitro selection for triplet polymerase activity
Outline: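 Libraries of mutants in each subunit of a heterodimeric triplet polymerase ribozyme were generated by PCR and transcribed. In triplicate, each went through one in vitro selection round: annealing with biotinylated primer, partner subunit and triplets; frozen incubation at −7 °C; gel excision of extended constructs; streptavidin-bead capture; RT-PCR. Fitness, taken from Illumina sequencing of input and output libraries, is the logarithm of a genotype's enrichment over wild-type enrichment, averaged across replicates with inverse-variance weights. The logarithm is base 2, and genotypes needed ≥10 input reads and ≥1 read per output to be kept.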

Polymerase ribozyme fitness (log ratio), ≤ -4.2:
GGAUCUUCUGGAUCUAACAAAAAAGACUAAUCUGCGACAAAGCUUGAGAGCAUCUUCGGAUGCAGAGGCGUCAGCCUUCGGUGGCGCGAUAGCGUCAACGUUCUCAACUAUGACACGCAAAAUGCGUGCUCCGUUGAAUGGAGUUUAUCAUG [C10G A28U C36G G71U C95U C123U]
GGAUCUUCUGGAUCUAACAAAAAAGACACAUCUGCCACAAAGCUUGAGAGCAUCUUCGGAUGCAGAGGCGGAAGCCUUCGGUGGCGCUAUAGCGCCAACGUUCUCAACUAUGACACGCAAAACGCGUGCUCCGUUGAAUGGAGUUUAUCAUG [C10G A29C C72A G88U]
GGAUCUUCUGGAUCUAACAAAAAAGACAAAUCUGCCAUAAAGCUUGAGAGCAUCUUCGGAUGCAGAGGCGGCAGCCUUCGGUGGCGAGAUAGGGCCAACGUUCUAAACUAUGACACGCAAAACGCGUGCUCCGUUGAAUGGAGUUUAUCAUG [C10G C38U C87A C93G C105A]
GGAUCUUCUGGAUCUAACAAAAAAGACAAAUCUGCCACAAAGCUUGAGAGCAUCUUCGGAUGCAGAGGCGGCGGCCUUCGGUGGCGAGAUAGCGCCAUCGUUCUCAACUAUGACACGCAAAACGCGUGCUCCGUUGAAUAGAGUUGAUCAUG [C10G A73G C87A A98U G140A U146G]
GGAUCUUCUGGAUCUAACAAAUAAGACAAAUCUGUCAUAAAGCUUGAGAGCAUGUUCGGAUGCAGAGGCGGCAGCCUUCGGUAUCGAGAUAGCGCCAACGUUCUCAACUAUGACACGCAAAACGCGCGAUCCGUUGAAUGGAGUUUAUCAUG [C10G A22U C35U C38U C54G G83A G84U C87A U127C C129A]
GGAUCUUCUGGAUCUAACAAAAAAGACUAACCUGCCACAAAGCUUGAGAGCAUCUUCGGAUGCAGAGGCGGCAGCAUUCGGCGGCACGAUAGCGCCAACGUUCUCAACUAUGACACGCAAAACGCGUUCUCCGUUGAAUGGAGUUUAUCAUG [C10G A28U U31C C76A U82C G86A G128U]
GGAUCUUCUGGAUCUAACAAAAAAGACAAAUCUGCCUCAAAGCUUGAGAGCAUCUUCGGAUGCAGAGGCGGCAGCCUUCGGUGGCGCGAUAGCGACAACGUUGUCAACAAUGACACGCAAAACGCGUGCUCCGUUGUAUGGAGUUUAUCAUG [C10G A37U C95A C103G U109A A137U]
GGAUCUUCUGGAUCUAACAAAAAAGAGAAAUAUGCCACAAAGCUUGAGAGCAUCUUCGGGUGCACAGGCGGCAGCCUUCGGUGCCGGGAUAGCGCCAACGUUCUCAACUAUGACACGCAAAACGCGUGCUCCGAUGAAUGGAGUUUAUCAUG [C10G C27G C32A A60G G65C G84C C87G U134A]
GGAUCUUCUGGAUCUAACAAAAAAGACCAAUCUGCCACAAAGCUUGAGAGAAUCUUCGGAAGCAGAGGCGGCAGCCUUCGGUGGCGCGAUAGUGCCAAAGUUCUCAACUAUGACACGCAAAACGCGUGCUCCGUUGAAUGGAGUUUAUCAUG [C10G A28C C51A U61A C93U C99A]
GGAUCUUCUGGAUCUAACAAAAAAGACAAAUCUGCCGCAAAGCUUGAGAGCAUCUUCGGAUGCAGAGGCGGCAGCCUUCGGUGGCGCGAUACCGCCAACGUUCUCAACUAUGACACGCAAAACGCGUGCUCCGUGGGAUGGAGUUUAUGAUG [C10G A37G G92C U135G A137G C149G]
GGAUCUUCUGGAUCUAACAAAAAAGACAAAUCUGCCAUAAAGCUUGAGAGCAUCUUCGGAUGCAGAGGCGGCAGCCUUCGGUGGCGCGAUUGCGCCAACGUUCGCAACUAUGAUACGCAAAACGCGUGCUCCUUUGAAUGGAGUUUAUCAUG [C10G C38U A91U U104G C114U G133U]
GGAUCUUCUGGAUCUAACAAAAAAGACAAAUCUGCCACAAAGCUUGAGAGCUUUUUCGGAUGCAGAGGCGGCAGCCUUCGGUGGCGCGAUAGCGCCUACGUUCUCAACUAUGACACGCAAAACGCGUGCUCUGUUGAAUGGAGUUUAUCAUG [C10G A52U C54U A97U C132U]
GGAUCUUCUGGAUCUAACAAAAUAGACAAAUCUGCUACAAAGCUUGAGAGCAUCUUCGGAUGCAGAGGCGGCAGCCUUCUGUGGCGCGAUAGCGCCAUCGUUCUCAACUAUGACAGGCAAAACGCGUGCUCCGUUGAAUGGAGUUUAUCAUG [C10G A23U C36U G80U A98U C116G]
GGAUCUUCUGGAUGUAACAAAAAAGACACAUCUGCCACAAAGCUUGAGAGCAUCUUCGGAUGCAGAGGUGGCAGCCUUCGGUGGCGCGAUAGCGCCAACGUUAUCAACUAUCACACGCAAAACGCGUGCUCCGUUGACCGGAGUUUAUCAUG [C10G C14G A29C C69U C103A G112C A138C U139C]
GGAUCUUCUGGAUCUAACAAAAAAGACAUAUCUGCCACUAAGCUUGAGAGCAUCUUCGGAUGCAGAGGCGGCAGCCUUCGGUGCCGCGAUAGCGCCAUCGUUCUCAACUAUGACACGCAAAACGCGUGCUCCGCUGAAUUGAAUUUAUCAUG [C10G A29U A39U G84C A98U U134C G140U G143A]
GGAUCUUCUGGAUCUAACAAAAAAGACGAAUCUGCCACAAAGCUUGAGAGCAUCUUCGGAUGCAGAGGCGGCAGCCUUCGGGGGCGCGAUAGCCACAACGUUCUCAACUAUGACACGCAAAACGCGUGCUCCGUUGAAUAGAGUUUAUCAUG [C10G A28G U82G G94C C95A G140A]
GGAUCUUCUGGAUCUAAUAAAAAAGACAAAUCUGCCACACAGCAUGAGAGCAUCUUCGGAUGCAGAGGCGGCAGCCUUCGGUGGCGCGAUAGGGCCAACGUUCUCAACUAUGACACGCAAAACGCGUGCUCCGUUGAAUGGAGUUUAUCAUG [C10G C18U A40C U44A C93G]
GGAUCUUCUGGAUCUAACAAAAAAGACAAAUCUGACACAAAGCUUGAGAGCAUCUUCGGAUGCAGAGGCGGCAGCCUUCGGUGUCGCGAUAGCGCCAACGGUCUCAACUAUGACACGCAAAACGCGUGCUCCGUUGAAUGGAGUUUAGCAUG [C10G C35A G84U U101G U148G]
GGAUCUUCUGGAUCUAACAAAAAAGACAAAUCUGCCACAGAGCUUGAGAGCAUCUUCGGAAGCAGAGGCGGCAGCCUUCGGUGGCGCGAUAGCGCCAACGUUCUCAACUAUGACACGCAAAACGCGUGCUCCGUUGAAUGGAUUUUAUCAUG [C10G A40G U61A G143U]

— the RNAGym collection of RNA variant scans (doi:10.1073/pnas.2313332121)
